From the supplement of paper PMC11417369 come the findings set out here.

± gives the standard deviation of the averaged measurements. Some of the results follow.

This assay concerns PfAP2-EXP AP2 domain (GST-tagged). In words: gcPBM binding intensity (ln(normalized median fluorescence intensity)); higher = stronger DNA binding. In a few lines:
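An Agilent 4 × 180k array carrying primer-extended double-stranded 36-bp intergenic genomic probes and negative controls received GST-tagged P. falciparum DNA-binding domains expressed in E. coli, about 25 μg on average, for 1 h. The binding buffer contained 1× PBS, 1% milk, 0.2 mg/ml BSA, 0.5% salmon testes DNA and 0.03% Triton X-100. Binding intensity is the top Masliner-normalised natural-log median intensity across replicate spots of either probe orientation, read after Alexa488 anti-GST antibody staining and a 488 nm scan.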
Turning to “TTTTTAAATTATTTGAAAAAAAGAAAATTATAAACA [CACACA_negctrl_site1599]”, the “gcPBM binding intensity (ln)” value was determined as 8.29 ± 0.49. With “ATTTTATTCTAAAAAGGTACACATATTATTTTATGA [XGTACX_site7233]” the figure was 8.19 ± 0.21; with “GGAAAAACCATTCGCACACACACATAATATATAATA [CACACA_site1424]”, 8.66 ± 0.47.

As to “ATTAATATATATGGATGTACTTATGTATGTATGCAT [XGTACX_site2263]”, the “gcPBM binding intensity (ln)” value was found to be 8.5 ± 0.28.

As to “ATAATAATATATATTACACACGCATCGTTCATTTAT [CACACA_site8752]”, the “gcPBM binding intensity (ln)” value was found to be 8.78 ± 0.51.

Regarding “CATGTATAATATAATACACACTATATAATATACACC [CACACA_site5267]”, the “gcPBM binding intensity (ln)” value amounted to 8.52 ± 0.3. The value for “TATTGACAAAATAGCTGTACAAATTAAAAGAAATAA [XGTACX_site4415]” was 8.72 ± 0.48; that for “ATGGCCATAATATAGACACACATATATAAATATATA [CACACA_site2230]” was 8.39 ± 0.3. With “CGATATGTTCAATATTGTACTATTTATAATAATATG [XGTACX_site3051]” the figure was 8.34 ± 0.28; with “TATTTATATGGACACACACACATATAAATAAATAAA [CACACA_site6346]”, 8.88 ± 0.58. In the case of “TCTTACTAATATCGCACACACATATGTAGACGGGAT [CACACA_site87]”, the “gcPBM binding intensity (ln)” value is 8.64 ± 0.33. With “TTATTGTCTTCTCATATACACACTTTTATGACTATC [CACACA_site3142]” the figure was 8.94 ± 0.45; with “TTTAATTGATAATGAAGACAATTATATGCATCCAAA [TGCATGCA_negctrl_site138]”, 8.4 ± 0.36. With “CTTAAAAAAAAAAAATGTACACATAAAAAAAATACA [XGTACX_site6700]” the figure was 8.52 ± 0.35; with “TAAAATATTATAAAATGTACAAAACATATAAATATA [XGTACX_site5315]”, 8.38 ± 0.26.

Take “TGTAGGTATTATTATACACACATAAAAAAAAAAAAA [CACACA_site3598]”: the “gcPBM binding intensity (ln)” value is 8.49 ± 0.59. With “AAACATATATATATTATATATATATATATATATATG [GTGCAC_negctrl_site182]”, the “gcPBM binding intensity (ln)” value amounted to 8.47 ± 0.042. “TAACATATAATATTCACACACATATATATATTATAT [CACACA_site988]”: the “gcPBM binding intensity (ln)” value was 8.69 ± 0.47. For the sequence “AAATTAAAAAGACATTCACACATTTTCATCTTAACA [CACACA_site5221]”, the “gcPBM binding intensity (ln)” value was found to be 8.34 ± 0.43.

“TATTATTATCTTACCACACACAATGTACGAAAAGAT [CACACA_site352]”: the “gcPBM binding intensity (ln)” value was 8.61 ± 0.3. With “TATATTTTCTATAGGTGTACTCCACATGCGGTGTTA [XGTACX_site7471]” the figure was 8.67 ± 0.42; with “ATATTGATACATCCAATACACACTACATATAATGAT [CACACA_site1874]”, 8.52 ± 0.29. With “AAACATCTTTACAACGTCCCTCCTTTTTTATGTACC [GTGCAC_negctrl_site528]” the figure was 8.76 ± 0.54; with “ATATATGATGTAAAAGCACACATATATATATATATA [CACACA_site9330]”, 10.1 ± 0.25.

With “TCCCTCTTTTTATTCTCACACACGTTTATATATAAA [CACACA_site1644]”, the “gcPBM binding intensity (ln)” value was found to be 9.14 ± 0.49.

As to “AATATATATAAATATTGTACAAAAATATATATATAT [XGTACX_site2910]”, the “gcPBM binding intensity (ln)” value turned out to be 9.7 ± 0.3. With “TATATAAACATATAAACATGCAATATATATATGTTA [TGCATGCA_site765]” the figure was 8.43 ± 0.2; with “AAAAAAATTAAATCAAGTACTCATTCTTAAATTATA [XGTACX_site1274]”, 8.01 ± 0.28; with “GGAAAAAAACTTATGAGTACACATAAATATAGCACA [XGTACX_site6686]”, 9.14 ± 0.11. The value for “AAAAATATATAACAAAGTACATATATATTTAGTAAT [XGTACX_site8791]” was 8.35 ± 0.38.

As for “TGTATGAAATATATTACACACATATATAATATATAT [CACACA_site793]”, the “gcPBM binding intensity (ln)” value came to 8.36 ± 0.3. The value for “GTGTAAATAAGGATATATAACAATCAACAAAACATA [CACACA_negctrl_site1759]” was 8.83 ± 0.54; that for “ATACACAAAATTATTAAATCAATAAATATATGGTTT [CACACA_negctrl_site353]” was 8.07 ± 0.47. With “ATATTTTTCAAACATCGTACATTATGAGTTAAAATT [XGTACX_site584]” the figure was 8.38 ± 0.33; with “CACACCCACCAACACACACACACACCCACCCATATA [CACACA_site366]”, 8.61 ± 0.57. With “TTATAAATGAATAAATGTACAAAATATATATATATA [XGTACX_site8829]” the figure was 10.1 ± 0.36. Take CATAACATAAAATAGGTGCACAAAAATTGTAATTGA: the “gcPBM binding intensity (ln)” value worked out at 9.275 ± 0.035.

In the case of “TTGTAATATATGTATTGTACGCATATAACAATTATT [XGTACX_site3652]”, the “gcPBM binding intensity (ln)” value turned out to be 8.46 ± 0.22. With “TTCAGTGTATACATATGTACATATATATATATATAT [XGTACX_site1621]” the figure was 10 ± 0.42; with “ATTTTTATTTGTTACGCATGCATAAAAGTGCATACT [TGCATGCA_site547]”, 9.685 ± 0.092. The value for “AAAATACATAAATGTTCACACATTAAAAAGCAGAAG [CACACA_site5346]” was 8.87 ± 0.49; that for “TTTATAAAGAAACACACACACATGTGAACATAAAAA [CACACA_site1908]” was 8.94 ± 0.45; that for “TATGTCAGATGAAAGGGTACATAATATAATATATTT [XGTACX_site8062]” was 8.32 ± 0.46.

On to “TTTTTTTTTTAATTCGCACACTGTCTTCATACAATT [CACACA_site1379]”, for which the “gcPBM binding intensity (ln)” value came to 8.91 ± 0.41.
